PubChem BioAssay AID624173 (National Center for Advancing Translational Sciences (NCATS), 2012)
Where “and” joins values, the source holds several entries; their conditions need not be identical. Identical values can stand only once. Among all 410,000 compounds or so, about 490 (0.12%) were called active. Inconclusive results, whose numbers are uncertain, are shown with a selection of clear calls. Calls come from the whole dose curve; as a rule, active = well fitted inhibition curve with a large enough effect; inconclusive = small, poorly fitted or top-dose-only effect; inactive = flat fitted curve, though single readings scatter. Where the call is inconclusive, the potency comes from a doubtful curve fit.

Molecular target: pyruvate kinase (Trypanosoma brucei) (UniProt Q57TT1)
Test: qHTS of Trypanosoma Brucei Inhibitors; note: nearly all actives have a fitted effect of over 50% in size
Details: TbPYK enzyme, Kinase-Glo Plus ATP luminescence, 45 min; series mostly up to 76.8 µM
How it was run: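 Assay buffer: 50 mM TEA pH 7.2, 100 mM KCl, 10 mM MgCl2, 0.05% BSA, 0.01% Tween-20. Pyruvate kinase from T. brucei plus substrate met compound, then ADP (130 uM final). Luminescence was read post 45 min RT.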
Potency is the fitted concentration of half-maximal effect; tags give direction and shape of the fitted curve.

Row | SMILES | Potency
1 | O=C1c2ccccc2-c2nnc(-c3ccccc3)cc21 | inconclusive: 8.91 µM [inhibitor, partial curve]
2 | Cc1ccc2nc3c(cc2c1)CN(Cc1ccco1)C(=NCC1CCCO1)S3 (stereo not drawn) | inactive
3 | CCOC(=O)N1CCC(Nc2c(NCCCOC)c(=O)c2=O)CC1 | inactive
4 | O=C(C=Cc1ccccn1)c1ccccc1O | inactive
5 | C=CCn1c(-c2cccc(S(=O)(=O)N3CCOCC3)c2)n[nH]c1=S | inconclusive: 14.1 µM [inhibitor, partial curve]
6 | Cc1ccc(C2CC2c2n[nH]c(=S)n2-c2ccc(C)cc2)cc1 (stereo not drawn) | inconclusive: 15.8 µM [inhibitor, partial curve, poor fit]
7 | CN(C)c1ccc(/C=C/c2cc[n+](C)c3ccccc23)cc1 | inconclusive: 35.5 µM [inhibitor, partial curve, poor fit] and inconclusive: 35.5 µM [inhibitor, partial curve]
8 | COc1cccc(NC(=O)c2sc3nc(N4CCOCC4)c4c(c3c2N)CC(C)(C)OC4)c1 | inconclusive: 12.6 µM [inhibitor, partial curve, poor fit]
9 | CC1CC(NC(=O)Cc2ccc(Br)cc2)CC(C)(C)C1 (stereo not drawn) | inconclusive: 39.8 µM [inhibitor, partial curve, poor fit]
10 | CCOC(=O)N1CCN(C(=O)CSCc2ccccc2)CC1 | inactive
11 | Cc1ccccc1OC(=O)n1c(=S)oc2cc(Cl)ccc21 | inconclusive: 12.6 µM [inhibitor, partial curve, poor fit]
12 | CC(=O)N(Cc1ccc(F)cc1)C1=C(NCc2ccccc2)C(=O)c2ccccc2C1=O | inactive
13 | Cc1nc2c(c(C)c1CCC(=O)Nc1cccc(C(F)(F)F)c1)c(=O)n(C)c(=O)n2C | inactive
14 | CCCC(c1c(C)n(C)n(-c2ccccc2)c1=O)c1c(C)n(C)n(-c2ccccc2)c1=O | inconclusive: 22.4 µM [inhibitor, partial curve, poor fit]
15 | Cc1cccc(-n2c(SCc3cc(=O)n4ccsc4n3)nc3ccccc32)c1 | inconclusive: 20 µM [inhibitor, partial curve]
16 | O=c1oc2ccccc2c(O)c1/C=N/c1ccccn1 | inconclusive: 7.94 µM [inhibitor, full curve]
17 | Cc1ccc(C)c(-n2c(-c3ccco3)n[nH]c2=S)c1 | inconclusive: 5.01 µM [inhibitor, full curve]
18 | Cc1cccc2c1N(CCCOc1ccccc1)C(=O)C2=O | inactive
19 | O=C(CSc1nnnn1C1CCCCC1)Nc1cccc(NC(=O)c2ccco2)c1 | inconclusive: 20 µM [inhibitor, partial curve, poor fit]
20 | O=C(C1CC1)N1CCc2cc(Br)cc(S(=O)(=O)NCc3ccccn3)c21 | inconclusive: 31.6 µM [inhibitor, single point]
21 | COC(=O)c1ccc(OCC2c3cc(OC)c(OC)cc3CCN2C(=O)C2CC2)cc1 (stereo not drawn) | inconclusive: 1 µM [inhibitor, full curve, poor fit]
22 | COc1ccc(/C=C2/C(=O)NC(=S)N(C3CC3)C2=O)cc1CN1C(=O)c2ccccc2C1=O | inconclusive: 28.2 µM [inhibitor, partial curve]

Row | SMILES | Potency
23 | CC(/C=N/n1c(-c2cccnc2)n[nH]c1=S)=C\c1ccccc1 | inconclusive: 0.891 µM [inhibitor, full curve, poor fit]
24 | Cc1ccc(CN2C(=O)c3ccccc3Sc3ccc(C(=O)NC4CCCCC4)cc32)cc1 | inactive
25 | CCc1ccc(-c2cc(C(F)(F)F)n3nc(C(=O)Nc4c(C)nn(Cc5ccc(F)cc5)c4C)cc3n2)s1 | inactive
26 | c1ccc(OCc2nnc3n2N=C(c2ccccc2)CS3)cc1 | inconclusive: 22.4 µM [inhibitor, partial curve, poor fit]
27 | COC(=O)C(C)Sc1nnc2cc(C)c3cc(C)cc(C)c3n12 (stereo not drawn) | inconclusive: 20 µM [inhibitor, partial curve]
28 | Cc1ccc(NC(=O)c2sccc2C)nc1 | inconclusive: 35.5 µM [inhibitor, partial curve]
29 | O=C(CSc1nnc(C2CC2)n1-c1ccccc1)N1CCNC1=O | inactive
30 | O=C(CCCn1c(=O)[nH]c2ccccc2c1=O)NCc1ccccc1Cl | inactive
31 | CCC(c1n[nH]c(=S)n1-c1ccccc1)N(C)C (stereo not drawn) | inconclusive: 20 µM [inhibitor, partial curve, poor fit]
32 | C=CCn1c(-c2cccc(OC)c2OC)n[nH]c1=S | inconclusive: 28.2 µM [inhibitor, partial curve]
33 | Cc1ccc(/C=C/C(=O)OCC(=O)N2CC(=O)Nc3ccccc32)o1 | inconclusive: 31.6 µM [inhibitor, single point]
34 | Cc1ccc(Cl)cc1NS(=O)(=O)c1ccc2c(c1)NC(=O)C(C)C(=O)N2 (stereo not drawn) | inactive
35 | Cc1cc(=O)oc2c1c(C)nn2-c1nn[nH]n1 | inconclusive: 50.1 µM [inhibitor, single point]
36 | CC(C)(C)n1cnc(C(N)=O)c1N | inconclusive: 39.8 µM [inhibitor, single point]
37 | CC1=C/C(=C(/c2cc(C)c(O)c(Br)c2)c2ccccc2S(=O)(=O)O)C=C(Br)C1=O | inconclusive: 14.1 µM [inhibitor, partial curve, poor fit]
38 | COc1ccc(CNC(=O)CCNS(=O)(=O)c2cc(Br)cnc2N)cc1 | inconclusive: 28.2 µM [inhibitor, single point]
39 | NS(=O)(=O)c1ccc(CCNC(=O)c2cncc(Br)c2)cc1 | inconclusive: 31.6 µM [inhibitor, partial curve]
40 | COc1ccc(CCNC(=O)CCCn2c(=O)c3ccccc3n(CC(=O)Nc3ccc(C)cc3Cl)c2=O)cc1OC | inactive
41 | COc1ccc(C=C2CCc3ccccc3C2=O)cc1 | inconclusive: 35.5 µM [inhibitor, partial curve, poor fit]
42 | Cc1ccccc1/C=N/n1c(-c2ccccn2)n[nH]c1=S | inconclusive: 7.94 µM [inhibitor, partial curve, poor fit]
43 | CCc1ccc2nc3sc(C(=O)Nc4nnc(CC)s4)c(N)c3cc2c1 | inconclusive: 25.1 µM [inhibitor, partial curve, poor fit]
